# In the supplement of paper PMC8728848:
# This is one part of the list.
# Columns and labels:
# Assay in all cases: glycan array binding signal (z-score within array); higher = stronger binding
# Settings in all cases: glycan notation: IUPAC condensed, linker removed
# [1] = target: Neu5Ac(a2-6)Gal(b1-3)GlcNAc(b1-3)[Gal(b1-4)GlcNAc(b1-6)]Gal(b1-4)Glc
# How it was run: (§1)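 Negative Z-scores can be read as non-binding. The Z-score is calculated within each array and then averaged across arrays of one protein sequence at different concentrations or buffers and across linkers. Arrays, 3228 in all, were curated from the Consortium for Functional Glycomics database and kept only where the protein sequence was available.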
# [2] = target: Neu5Ac(a2-6)Gal(b1-4)Glc
# How it was run: as §1
# [3] = target: Neu5Ac(a2-6)Gal(b1-4)GlcNAc
# How it was run: as §1
# [4] = target: Neu5Ac(a2-6)Gal(b1-4)GlcNAc(b1-2)Man
# How it was run: as §1
# [5] = target: Neu5Ac(a2-6)Gal(b1-4)GlcNAc(b1-2)Man(a1-3)Man(b1-4)GlcNAc(b1-4)GlcNAc
# How it was run: as §1
# [6] = target: Neu5Ac(a2-6)Gal(b1-4)GlcNAc(b1-2)Man(a1-3)[Gal(b1-4)GlcNAc(b1-2)Man(a1-6)]Man(b1-4)GlcNAc(b1-4)GlcNAc
# How it was run: as §1
# [7] = target: Neu5Ac(a2-6)Gal(b1-4)GlcNAc(b1-2)Man(a1-3)[GlcNAc(b1-2)Man(a1-6)]Man(b1-4)GlcNAc(b1-4)GlcNAc
# How it was run: as §1
# [8] = target: Neu5Ac(a2-6)Gal(b1-4)GlcNAc(b1-2)Man(a1-3)[GlcNAc(b1-4)][Neu5Ac(a2-6)Gal(b1-4)GlcNAc(b1-2)Man(a1-6)]Man(b1-4)GlcNAc(b1-4)GlcNAc
# How it was run: as §1
# [9] = target: Neu5Ac(a2-6)Gal(b1-4)GlcNAc(b1-2)Man(a1-3)[Man(a1-6)]Man(b1-4)GlcNAc(b1-4)GlcNAc
# How it was run: as §1
# [10] = target: Neu5Ac(a2-6)Gal(b1-4)GlcNAc(b1-2)Man(a1-3)[Neu5Ac(a2-3)Gal(b1-4)GlcNAc(b1-2)Man(a1-6)]Man(b1-4)GlcNAc(b1-4)GlcNAc
# How it was run: as §1
# [11] = target: Neu5Ac(a2-6)Gal(b1-4)GlcNAc(b1-2)Man(a1-3)[Neu5Ac(a2-6)Gal(b1-4)GlcNAc(b1-2)Man(a1-6)]Man(b1-4)GlcNAc(b1-4)GlcNAc
# How it was run: as §1
# [12] = target: Neu5Ac(a2-6)Gal(b1-4)GlcNAc(b1-2)Man(a1-3)[Neu5Ac(a2-6)Gal(b1-4)GlcNAc(b1-2)Man(a1-6)]Man(b1-4)GlcNAc(b1-4)[Fuc(a1-6)]GlcNAc
# How it was run: as §1
# [13] = target: Neu5Ac(a2-6)Gal(b1-4)GlcNAc(b1-2)Man(a1-6)Man(b1-4)GlcNAc(b1-4)GlcNAc
# How it was run: as §1
# [14] = target: Neu5Ac(a2-6)Gal(b1-4)GlcNAc(b1-2)Man(a1-6)[Gal(b1-4)GlcNAc(b1-2)Man(a1-3)]Man(b1-4)GlcNAc(b1-4)GlcNAc
# How it was run: as §1
# [15] = target: Neu5Ac(a2-6)Gal(b1-4)GlcNAc(b1-2)Man(a1-6)[GlcNAc(b1-2)Man(a1-3)]Man(b1-4)GlcNAc(b1-4)GlcNAc
# How it was run: as §1
# [16] = target: Neu5Ac(a2-6)Gal(b1-4)GlcNAc(b1-2)Man(a1-6)[Man(a1-3)]Man(b1-4)GlcNAc(b1-4)GlcNAc
# How it was run: as §1
# [17] = target: Neu5Ac(a2-6)Gal(b1-4)GlcNAc(b1-2)[Neu5Ac(a2-6)Gal(b1-4)GlcNAc(b1-4)]Man(a1-3)[GlcNAc(b1-4)][Neu5Ac(a2-6)Gal(b1-4)GlcNAc(b1-2)[Neu5Ac(a2-6)Gal(b1-4)GlcNAc(b1-6)]Man(a1-6)]Man(b1-4)GlcNAc(b1-4)GlcNAc
# How it was run: as §1
# [18] = target: Neu5Ac(a2-6)Gal(b1-4)GlcNAc(b1-2)[Neu5Ac(a2-6)Gal(b1-4)GlcNAc(b1-4)]Man(a1-3)[GlcNAc(b1-4)][Neu5Ac(a2-6)Gal(b1-4)GlcNAc(b1-4)Man(a1-6)]Man(b1-4)GlcNAc(b1-4)GlcNAc
# How it was run: as §1
# [19] = target: Neu5Ac(a2-6)Gal(b1-4)GlcNAc(b1-2)[Neu5Ac(a2-6)Gal(b1-4)GlcNAc(b1-6)]Man(a1-6)[Neu5Ac(a2-6)Gal(b1-4)GlcNAc(b1-2)Man(a1-3)][GlcNAc(b1-4)]Man(b1-4)GlcNAc(b1-4)GlcNAc
# How it was run: as §1
# [20] = target: Neu5Ac(a2-6)Gal(b1-4)GlcNAc(b1-3)Gal(b1-3)GlcNAc
# How it was run: as §1
# [21] = target: Neu5Ac(a2-6)Gal(b1-4)GlcNAc(b1-3)Gal(b1-4)GlcNAc
# How it was run: as §1
# [22] = target: Neu5Ac(a2-6)Gal(b1-4)GlcNAc(b1-3)Gal(b1-4)GlcNAc(b1-2)Man(a1-3)[Neu5Ac(a2-6)Gal(b1-4)GlcNAc(b1-3)Gal(b1-4)GlcNAc(b1-2)Man(a1-6)]GalNAc
# How it was run: as §1
# [23] = target: Neu5Ac(a2-6)Gal(b1-4)GlcNAc(b1-3)Gal(b1-4)GlcNAc(b1-3)Gal(b1-4)GlcNAc
# How it was run: as §1
# [24] = target: Neu5Ac(a2-6)Gal(b1-4)GlcNAc(b1-3)Gal(b1-4)GlcNAc(b1-3)Gal(b1-4)GlcNAc(b1-2)Man(a1-3)[Neu5Ac(a2-6)Gal(b1-4)GlcNAc(b1-3)Gal(b1-4)GlcNAc(b1-3)Gal(b1-4)GlcNAc(b1-2)Man(a1-6)]GalNAc
# How it was run: as §1
# [25] = target: Neu5Ac(a2-6)Gal(b1-4)GlcNAc(b1-3)Gal(b1-4)GlcNAc(b1-3)GalNAc
# How it was run: as §1
# [26] = target: Neu5Ac(a2-6)Gal(b1-4)GlcNAc(b1-3)Gal(b1-4)GlcNAc(b1-3)[Neu5Ac(a2-6)Gal(b1-4)GlcNAc(b1-3)Gal(b1-4)GlcNAc(b1-6)]GalNAc
# How it was run: as §1
# [27] = target: Neu5Ac(a2-6)Gal(b1-4)GlcNAc(b1-3)Gal(b1-4)GlcNAc(b1-6)[Gal(b1-3)]GalNAc
# How it was run: as §1
# [28] = target: Neu5Ac(a2-6)Gal(b1-4)GlcNAc(b1-3)Gal(b1-4)[Fuc(a1-3)]GlcNAc(b1-3)Gal(b1-4)[Fuc(a1-3)]GlcNAc
# How it was run: as §1
# [29] = target: Neu5Ac(a2-6)Gal(b1-4)GlcNAc(b1-3)GalNAc
# How it was run: as §1
# [30] = target: Neu5Ac(a2-6)Gal(b1-4)GlcNAc(b1-3)[Neu5Ac(a2-6)Gal(b1-4)GlcNAc(b1-6)]GalNAc
# How it was run: as §1
# [31] = target: Neu5Ac(a2-6)Gal(b1-4)GlcNAc(b1-6)GalNAc
# How it was run: as §1
# [32] = target: Neu5Ac(a2-6)Gal(b1-4)GlcNAc(b1-6)[Gal(b1-3)GlcNAc(b1-3)]Gal(b1-4)Glc
# How it was run: as §1
# [33] = target: Neu5Ac(a2-6)Gal(b1-4)GlcNAc(b1-6)[Gal(b1-3)]GalNAc
# How it was run: as §1
# [34] = target: Neu5Ac(a2-6)Gal(b1-4)GlcNAc6S
# How it was run: as §1
# [35] = target: Neu5Ac(a2-6)GalNAc
# How it was run: as §1
# [36] = target: Neu5Ac(a2-6)GalNAc(b1-4)GlcNAc
# How it was run: as §1
# [37] = target: Neu5Ac(a2-6)GalNAc(b1-4)GlcNAc6S
# How it was run: as §1
# [38] = target: Neu5Ac(a2-6)GlcNAc(b1-4)GlcNAc
# How it was run: as §1
binder,measurement,setting,value
Si Bti9 1b-HA (Solanum lycopersicum) (protein) MFESRPRSVLSLGVFVILVYLSSVPLPVNSQCNRGCDLALASFYVWRGSNLTLISEMFSTSIADIVSYNNRDNIPNQDSVIAGTRINIPFRCDCLNDGEVLGHAFPYRVKSGDTYDLVARNYSDLTTAQWMMKFNSYPENNIPNTVNLSVVVNCSCGNSDVSKDFGLFVTYPVRAEDNLTSVASAANVSEDIIRRYNPAAVSILDIGQGIIYIPGRDRNGNFPPLPTSTDGLSGGAKAPLFFNPAFLYKVVELKLAGRSRTSGYPYDVPDYAGYPYDVPDYALEVLFQ,glycan array binding signal (z-score),[1],-0.236
same,glycan array binding signal (z-score),[2],-0.207
same,glycan array binding signal (z-score),[3],-0.275
same,glycan array binding signal (z-score),[4],-0.37
same,glycan array binding signal (z-score),[5],-0.381
same,glycan array binding signal (z-score),[6],-0.536
same,glycan array binding signal (z-score),[7],-0.361
same,glycan array binding signal (z-score),[8],-0.539
same,glycan array binding signal (z-score),[9],-0.349
same,glycan array binding signal (z-score),[10],-0.131
same,glycan array binding signal (z-score),[11],-0.244
same,glycan array binding signal (z-score),[12],-0.398
same,glycan array binding signal (z-score),[13],-0.388
same,glycan array binding signal (z-score),[14],-0.493
same,glycan array binding signal (z-score),[15],0.093
same,glycan array binding signal (z-score),[16],-0.33
same,glycan array binding signal (z-score),[17],-0.171
same,glycan array binding signal (z-score),[18],-0.262
same,glycan array binding signal (z-score),[19],-0.289
same,glycan array binding signal (z-score),[20],-0.167
same,glycan array binding signal (z-score),[21],-0.295
same,glycan array binding signal (z-score),[22],0.677
same,glycan array binding signal (z-score),[23],-0.187
same,glycan array binding signal (z-score),[24],2.19
same,glycan array binding signal (z-score),[25],-0.106
same,glycan array binding signal (z-score),[26],-0.228
same,glycan array binding signal (z-score),[27],-0.12
same,glycan array binding signal (z-score),[28],-0.437
same,glycan array binding signal (z-score),[29],0.739
same,glycan array binding signal (z-score),[30],-0.425
same,glycan array binding signal (z-score),[31],0.381
same,glycan array binding signal (z-score),[32],0.158
same,glycan array binding signal (z-score),[33],-0.186
same,glycan array binding signal (z-score),[34],-0.22
same,glycan array binding signal (z-score),[35],-0.245
same,glycan array binding signal (z-score),[36],-0.555
same,glycan array binding signal (z-score),[37],0.009
same,glycan array binding signal (z-score),[38],-0.447
